Measurements reported in patent US9457029B2, “Treatment of genotyped diabetic patients with DPP-IV inhibitors such as linagliptin” (Boehringer Ingelheim International GmbH, priority 2009, dated 2016).

What was measured:
[1] = tested on: Human isolated islets; settings: induced by H2O2 treatment
[2] = tested on: ob/ob mice; test: ob/ob mice, 14 days treatment: blood glucose AUC and blinded histological scoring of the liver; settings: 3 mg/kg/day
[3] = tested on: Human isolated islets; test: Nitrotyrosine concentration in islet lysates; settings: 100 nM linagliptin, all diabetic conditions
[4] = tested on: ob/ob mice; test: Wound healing and inflammatory markers in wounded skin of ob/ob mice; type: in vivo
Procedure: Impaired wound healing is a major complication of diabetes mellitus. […] The impact of linagliptin on inflammatory markers in wounded skin is examined and a rationale for the beneficial action of linagliptin on wound healing is provided:
Therefore, the expression of DPP-4 in the skin of diabetic and non-diabetic animals is assessed. Immunohisto-chemistry (IHC) and immunoblots reveal a strong expression of DPP-4 in skin from healthy and diabetic (ob/ob) mice and keratinocytes as the major cellular source of the enzyme. In line, the localization of DPP-4 protein in the skin nicely correlates with whole body autoradiography obtained after [3H]-labelled linagliptin treatment. […] In contrast, in acute wounds of diabetic mice any DPP-4 expression can not be observed. DPP-4 protein, however, is expressed in the late phase of wound repair. The inverse regulation of DPP-4 protein in diabetic versus non-diabetic skin provides a functional basis of the positive action of linagliptin in wound healing processes. Thus, improvement of the wound healing process mediated by a suitable DPP-4 inhibitor, such as linagliptin, depends on the compensation (inhibition) of a dysregulated DPP-4 in diabetic wounds rather than on the anti-glycemic or immunomodulatory effects thereof. Thus, a DPP-4 inhibitor being suitable for improving wound healing is such a DPP-4 inhibitor which can effectively bind to DPP-4 in the skin, e.g. to dysregulated DPP-4 in diabetic wounds, preferably in its therapeutic dose level.

[5] = tested on: model of diet-induced obesity; test: Diet-induced obesity model, 4 weeks therapy: OGTT and liver lipid content (MRS); type: in vivo, rodent; settings: 3 and 30 mg/kg/day
Text: […]. Liver lipid content is detected by magnetic resonance spectroscopy (MRS) in vivo and by analysis of liver triglycerides ex vivo. […]. […] Changes in liver fat content are visible as early as 2 weeks on treatment. The correlation between liver lipid content as measured by MRS and hepatic triglyceride levels as measured ex vivo is r2=0.565 (P<0.0001).

[6] = tested on: TGF-β1, T1MP-1 and collagen (Col3alpha1); test: mRNA expression of profibrotic factors in the heart of uremic rats; type: in vivo, rat
Text: Characteristic cardiomyopathy with intestinal expansion and fibrosis develops often in uremia. Thus, these antifibrotic properties of DPP-4 inhibitors may be used for the treatment of cardiac and renal injury, uremic heart, cardiac fibrosis and/or cardiomyopathy with intestinal expansion and fibrosis associated with uremia in patients with type 2 diabetes. The antifibrotic action of linagliptin can be an additional benefit for patients with chronic kidney and/or heart diseases that often accompany type 2 diabetes.

[7] = tested on: type 2 diabetes patients of TCF7L2 rs7903146 CC, CT or TT genotype; test: Association study of TCF7L2 SNP rs7903146 genotype and HbA1c response, pooled data over four studies (ANCOVA); type: in vivo, human; settings: linagliptin or combination treatment, 24 weeks, p value=0.0192
Text: To assess the homogeneity of the treatment effect on the change from baseline of HbA1c after 24 weeks in the genotype subgroups defined by TCF7L2 SNP […] genotypes an analysis of covariance (ANCOVA) model including the treatment interaction with the covariate genotype is applied for pooled data over four studies. The statistical model includes 'Treatment', 'Genotype', 'Study', 'Wash-Out-Period for prior oral antidiabetic drugs (yes/no)', 'Race', as well as the interaction term 'Treatment*Genotype' as fixed effects and 'HbA1c baseline' as a linear covariate. […] Model based pair-wise comparisons between wild-type homozygous (genotype CC) and heterozygous (genotype CT) or rare homozygous (genotype TT) individuals on linagliptin or combination treatment (linagliptin+pioglitazone, linagliptin+metformin, linagliptin+metformin+a sulphonylurea) are performed. […] Results are shown as point estimates and 95% confidence intervals for the mean change in HbA1c from baseline [%] after 24 weeks as estimated by ANCOVA models. The results are given for the whole patient population of the studies (full analysis set, FAS), for the subpopulation for which genetic analyses are performed (full analysis set for pharmacogenetic analyses, FASG), as well as for the subgroups defined by genotype (CC, CT, TT) of this subpopulation. […]

[8] = tested on: Japanese patients with type 2 diabetes mellitus; settings: 26 weeks

## CC#CCn1c(N2CCC[C@@H](N)C2)nc2c1c(=O)n(Cc1nc(C)c3ccccc3n1)c(=O)n2C [linagliptin, 1-[(4-methyl-quinazolin-2-yl)methyl]-3-methyl-7-(2-butyn-1-yl)-8-(3-(R)-amino-piperidin-1-yl)-xanthine]
[1]
  apoptosis: blocks apoptosis
[2]
  blood glucose AUC reduction: 25%
[2]; control 3±0.18
  histological score (hepatic steatosis and inflammation): 2.2±0.13
[3]
  nitrotyrosine production in islets: no elevated nitrotyrosine production
[4]; 3 mg/kg/day vs mock-treated ob/ob mice
  inflammatory markers COX-2 and MIP in wounds (RNase protection assays): no significant differences
[4]; ob/ob mice
  wound healing: improves wound healing
[4]; wounds of ob/ob mice, 3 mg/kg/day
  number of apoptotic infiltrating F4/80-positive macrophages: does not increase
[5]
  liver fat content (MRS detection): significantly reduced
[6]
  mRNA expression of profibrotic factors (TGF-β1, T1MP-1 and collagen (Col3alpha1)): significantly inhibits
[7]
  difference in change in HbA1c from baseline between TCF7L2 rs7903146 genotypes TT and CC: statistically significant difference
[8]; LI 5 mg
  FPG, difference of adjusted mean change from baseline vs. VB: -6.9 mg/dL
[8]; LI 10 mg
  proportion of patients whose HbA1c level lowered by ≧0.5%: 53.5%
